The supplement of paper PMC4166925
± gives the standard deviation of the averaged measurements. Whole data set: some 33,000 sequences, median “E-score (dimensionless, -0.5 to 0.5)” near -0.046, cut for the highest 2% near 0.36. The list shows a part of the results.

Test system: T1, SpTbr T-box DNA-binding domain (GST fusion)
T1 sequence: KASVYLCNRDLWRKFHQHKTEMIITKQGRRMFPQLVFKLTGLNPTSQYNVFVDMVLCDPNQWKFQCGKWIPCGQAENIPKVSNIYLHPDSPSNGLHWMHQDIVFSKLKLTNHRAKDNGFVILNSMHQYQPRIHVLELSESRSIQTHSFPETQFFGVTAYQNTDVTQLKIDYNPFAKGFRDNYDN
Experiment: PBM E-score of 8-mer (E-score (dimensionless, -0.5 to 0.5)); Tbr is Tbrain of the sea star Patiria miniata (Pm) or the sea urchin Strongylocentrotus purpuratus (Sp); higher = stronger binding preference; most listed sequences are background and not binding sites
Conditions: the construct has about 5 more residues each side
Method: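 Universal protein-binding microarray (Agilent AMADID 016060, 60-bp probes with a 35-bp variable region) incubated with 200 nM GST-fused Strongylocentrotus purpuratus Tbr T-box DNA-binding domain (residues 362-554) in PBS pH 7.5. Scored for every ungapped 8-mer (given with its reverse complement) as E-score (range -0.5 to 0.5; >0.45 counts as bound) and Z-score of median probe intensity. Two replicate arrays (datasets 1 and 2).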
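Note: protein at 200 nM in PBS on universal double-stranded arrays.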

Row | Sequence | PBM E-score of 8-mer
1 | CAAAACGA | -0.00577 ± 0.0098
2 | ATGAGATC | -0.236 ± 0.014
3 | CAAATTAA | -0.0282 ± 0.037
4 | AACCAATG | -0.227 ± 0.088
5 | AATTATAG | -0.249 ± 0.051
6 | GCGTATGA | 0.0523 ± 0.011
7 | AAGCCAAC | -0.219 ± 0.026
8 | AGGTAAGA | -0.219 ± 0.079
9 | CTAGCGAG | 0.129 ± 0.041
10 | ATCAACAT | -0.111 ± 0.028
11 | CCAGTCCC | -0.112 ± 0.028
12 | TGCCTCCA | -0.261 ± 0.043
13 | CAGCGTGC | -0.0832 ± 0.038
14 | ATTTTCAC | 0.202 ± 0.079
15 | TTCGTCAA | 0.143 ± 0.062
16 | AAGAACGT | 0.0235 ± 0.03
17 | CCCCATGC | -0.159 ± 0.13
18 | ATCAGTAC | -0.114 ± 0.0072
19 | ACGGGCAA | -0.18 ± 0.079
20 | CAGACCCG | 0.142 ± 0.051
21 | CTACTATC | -0.0381 ± 0.058
22 | CAATTCAG | -0.0756 ± 0.052

Row | Sequence | PBM E-score of 8-mer
23 | GTCTAAAC | -0.127 ± 0.099
24 | CGATCGAC | 0.246 ± 0.012
25 | ATTCAATA | -0.18 ± 0.016
26 | TTCATCAA | -0.146 ± 0.015
27 | TATTCTAA | -0.215 ± 0.022
28 | TAGCATGA | -0.265 ± 0.0047
29 | CACCTGAG | 0.3492 ± 0.00078
30 | CGAATATC | -0.0861 ± 0.035
31 | AGGATAAG | -0.163 ± 0.0048
32 | ACAGGAAT | 0.0131 ± 0.032
33 | GCGGCTAA | 0.15 ± 0.0054
34 | GACCAGGA | -0.124 ± 0.049
35 | TGGGTGAA | -0.137 ± 0.0066
36 | CCTCAACA | -0.0119 ± 0.047
37 | CGCTCAAG | -0.0431 ± 0.0039
38 | TCCCAACA | 0.202 ± 0.003
39 | CGAAGCAA | 0.0425 ± 0.013
40 | ACCCAGTC | -0.24 ± 0.0062
41 | CACACTGC | 0.175 ± 0.0027
42 | CAGTTCCA | -0.09108 ± 0.00077
43 | AGTCCTAT | -0.318 ± 0.11
44 | CGAACCAA | 0.0451 ± 0.0078

Row | Sequence | PBM E-score of 8-mer
45 | AAAGTTCG | 0.0442 ± 0.025
46 | GGACTTAA | -0.307 ± 0.01
47 | AAAATCAC | 0.209 ± 0.022
48 | CCCGCGAG | 0.254 ± 0.0046
49 | AAGGTGAA | 0.187 ± 0.0077
50 | AGTCAAGA | -0.156 ± 0.061
51 | ATTTGCTA | 0.133 ± 0.0068
52 | AAAATTTT | -0.141 ± 0.15
53 | AACCGTAG | -0.0901 ± 0.015
54 | GTAGAAAC | -0.21 ± 0.0056
55 | CGAAAAAA | -0.13 ± 0.14
56 | ATCCCAGC | -0.171 ± 0.041
57 | CTTACCTC | -0.0201 ± 0.025
58 | ACGCTGCG | 0.0912 ± 0.061
59 | AAGTAGTC | -0.153 ± 0.0063
60 | CAAGGCCG | -0.0893 ± 0.0095
61 | TCAGAGGA | 0.0964 ± 0.045
62 | CGCTGCAG | -0.0743 ± 0.11
63 | AGCCACTC | -0.1427 ± 0.0014
64 | GGCATAGA | -0.287 ± 0.012
65 | GATGTTAC | 0.068 ± 0.00029
66 | CGTCCCTC | -0.185 ± 0.077

Row | Sequence | PBM E-score of 8-mer
67 | CCGTTTCC | -0.0143 ± 0.09
68 | AAGTGGCT | 0.0589 ± 0.047
69 | GCAGACTA | -0.148 ± 0.0038
70 | CATGTTCG | -0.0105 ± 0.069
71 | GGGATGGA | -0.198 ± 0.03
72 | TAACGTGA | 0.133 ± 0.037
73 | CCGAAAGC | -0.0294 ± 0.049
74 | GCCTTTCC | -0.0333 ± 0.013
75 | GCATATCA | -0.0952 ± 0.062
76 | GCGTTAAA | 0.317 ± 0.04
77 | AAACCAAT | -0.235 ± 0.039
78 | GGAAACCC | -0.0429 ± 0.0096
79 | AGCAGTAT | -0.137 ± 0.08
80 | GGGGAGAC | -0.0202 ± 0.082
81 | AACGTATT | 0.0419 ± 0.033
82 | CAGCTAAA | -0.13 ± 0.029
83 | CAACATGA | 0.00917 ± 0.017
84 | CTTCACGC | 0.409 ± 0.01
85 | CACAGTGC | 0.166 ± 0.038
86 | CTCCCGAA | -0.226 ± 0.04
